From PubChem BioAssay AID1159614 (National Center for Advancing Translational Sciences (NCATS), 2016)
In all, about 45,000 compounds went through this assay and about 65 (0.1%) were called active. Calls come from the whole dose curve; as a rule, active = well fitted activation curve with a large enough effect; inconclusive = small, poorly fitted or top-dose-only effect; inactive = no such curve, though single readings can be large or run the other way. The list shows a part of the results.

What follows are compounds tested against Galactocerebrosidase (Homo sapiens) (UniProt P54803) (assay: A Novel Cell-Based Assay to Identify Small Molecules for B -Galactocerebrosidase). Details: 145M-Twi-hGALC-G270D cells (Twitcher mouse brain line with human GALC G270D), HMU-beta-Gal fluorescence, 48 h; series mostly up to 57.5 µM; activation: at the top concentration.
UniProt P54803, sequence (P54803 whole entry, looked up): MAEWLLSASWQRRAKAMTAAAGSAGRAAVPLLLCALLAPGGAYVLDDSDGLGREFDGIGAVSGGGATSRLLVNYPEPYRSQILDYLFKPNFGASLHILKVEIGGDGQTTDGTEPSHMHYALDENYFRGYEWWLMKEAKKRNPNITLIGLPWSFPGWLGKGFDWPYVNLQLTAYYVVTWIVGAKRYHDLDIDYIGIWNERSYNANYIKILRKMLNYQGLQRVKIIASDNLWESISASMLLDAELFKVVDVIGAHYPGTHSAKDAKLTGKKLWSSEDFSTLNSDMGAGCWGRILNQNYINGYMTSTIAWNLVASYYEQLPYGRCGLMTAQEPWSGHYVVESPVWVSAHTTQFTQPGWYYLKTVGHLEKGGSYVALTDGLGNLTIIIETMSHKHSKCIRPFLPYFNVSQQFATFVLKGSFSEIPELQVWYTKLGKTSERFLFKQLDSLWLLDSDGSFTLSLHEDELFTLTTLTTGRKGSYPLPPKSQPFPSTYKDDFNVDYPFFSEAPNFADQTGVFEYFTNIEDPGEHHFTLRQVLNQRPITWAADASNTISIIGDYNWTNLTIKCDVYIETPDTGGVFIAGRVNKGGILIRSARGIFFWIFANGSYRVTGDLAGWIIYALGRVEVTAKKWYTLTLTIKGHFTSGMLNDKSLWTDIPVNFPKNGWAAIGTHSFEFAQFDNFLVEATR
Text: Lysosomal storage diseases (LSDs) are caused by genetic mutations in genes encoding proteins important for normal lysosomal function. Globoid cell leukodystrophy (GLD), mostly known as Krabbe disease, is a prototype of the neurological LSDs caused by deficiency of beta-galactocerebrosidase (GALC). In brain specimens of GLD patients, psychosine levels are substantially elevated. At elevated concentrations, psychosine becomes cytotoxic to neuronal cells, particularly to oligodendrocytes (OLG), neural cells responsible for myelin formation. Therefore, the biochemical disturbances in GLD are manifested by different degrees of brain demyelination resulting in a broad spectrum of neurological manifestations. Most of the FDA-approved therapies are based on enzyme replacement therapeutic (ERT) agents, which treat non-neurological symptoms of Gaucher disease, Fabry disease, few mucopolysaccharidoses and Pompe disease. Unfortunately, in GLD, a primarily neurological LSD, ERT agents, as large molecular weight molecules unable to cross the blood-brain barrier, which makes this an inefficacious therapeutic approach. In GLD, increasing the residual GALC activity just above the critical threshold (~10% of wild type enzymatic activity), the cytotoxic levels of psychosine will be reduced, avoiding the OLGs apoptosis and the subsequent demyelination process. This will translate in disease stabilization and amelioration of GLD patient symptoms.
A cell-based assay in 1,536-well plate format was developed to implement a quantitative high-throughput screening (qHTS) assay using GLD-disease relevant cells to identify small molecules that produce enhancements of the residual enzymatic activity levels of mutants GALC found and prevalent in GLD patients. Compounds that are active may therefore have some therapeutic application for GLD. After the treatment of live cells for a determined period, using a fluorescent GALC specific substrate, the mutant residual GALC activity is measured. This cell-based qTHS assay was used to screen part of the MLPCN library for small molecule able to increase the mutant GALC enzymatic activity. In this assay, increased fluorescent signal corresponds to enhanced levels of mutant GALC residual enzymatic activity. Activation is the desired outcome for this assay.
NIH Chemical Genomics Center [NCGC]
NIH Molecular Libraries Probe Centers Network [MLPCN]
Assay Submitter (PI): Gustavo Maegawa MD,PhD, University of Florida, Gainesville, FL
2)#Two cell lines were established for the assay: 145M-Twi-hGALC-G270D (brain-derived Twitcher cell line stably expressing human GALC-G270D) and 145M-Twi-hGALC-WT (same 145M-Twi stably expressing human GALC wild type). The Twitcher is the murine C57B/6 model for GLD with naturally occurring homozygous nonsense GALC mutation. The 145M-Twi cell line was established at Maegawa lab (Ribbens J et al 2014).
a.#Media: DMEM/F12 (1:1) with 10% fetal bovine-serum (FBS) with penicillin/streptomycin (PS-1X - 100 I.U./mL of penicillin+100 ug/mL of streptomycin).
b.#The 6-Hexadecanoylamino-4-methylumbelliferyl-b-D-galactoside (HMU-B-gal) substrate was prepared as per Wiederschain et al 1992. Using 20-mL borosilicate tubes, 2.20 mg of HMU-b-Gal was added in each tube to prepare substrate-film with a final air-nitrogen stream evaporation to remove all diluent solvents.
c.#The HMUb-Gal substrate buffer consists of 0.2 M Na2HPO4 (sodium phosphate dibasic)/ 0.1 M Citric Acid with the pH adjusted to 5.2 using HCl. Sodium Azide at 0.02% and Sodium Taurocholate (NaTC) at 1 mg/mL were added to this substrate buffer.
d.#The HMU-b-Gal stopping buffer consist of 0.5 M NaHCO3 (sodium bicarbonate) /0.5 M Na2CO3 (sodium carbonate). […] Triton X-100 at 0.25% was added.
4)#Preparation of HMU-b-Gal substrate tubes
Adding 18.6 mL of the HMUb-Gal substrate buffer to each 20-mL tube (2.20 mg of HMU-b-Gal) will reach a concentration of 0.2 mM. Vortex well the tube until the solution is fully homogenized (clear cloudy solution). […]
Note: 0% is about no effect; nearly all actives have a fitted effect of over 65% in size.

activation, inactive:
CCN(CC)c1ccc(NC(=O)CCS(=O)(=O)c2cccc3nsnc23)c(C)c1 -17.8%
COc1ccc(C(=O)NCC(c2cccnc2)N2CCc3ccccc3C2)cc1 (stereo not given) -12.2%
COc1ccccc1CCNC(=O)c1cc2c(=O)n3cccc(C)c3nc2n1C -9.05%
Cc1csc2nc(COC(=O)c3ccccc3NC(=O)c3ccccc3Cl)cc(=O)n12 -11.1%
CNC(=O)C1CCC(Cn2c(=O)c3sccc3n(Cc3ccccc3)c2=O)CC1 (stereo not given) -11.6%
CCc1ccc(NC(=O)N2CC=C(c3c[nH]c4ccccc34)CC2)cc1 -4.61%
COc1cc(OC)c(NC(=O)C(C)n2c(=O)cc(-c3ccccc3)c3c(C)nn(C)c32)cc1Cl (stereo not given) -4.53%
CCOc1ccc(-c2nc(Cn3c(=O)cc(-c4ccccc4)c4c(C)nn(C)c43)c(C)o2)cc1OC -0.88%
Cc1ccccc1NC(=O)CSc1ncc2c(n1)-c1ccccc1N(C)S2(=O)=O -13%
CCOc1ccccc1NC(=O)c1c(NC(=O)C(C)Oc2cccc(Cl)c2)sc2c1CCCCC2 (stereo not given) -2.08%
Cc1cc(C)c2c(n1)nn1c(C)c(CCC(=O)Nc3ccc(C)c(Cl)c3)c(C)nc21 5.12%
Cc1cn2c(=O)cc(COC(=O)c3cccc(NC(=O)C(C)Oc4ccccc4)c3)nc2s1 (stereo not given) -6.57%
CCSC1=NC2(CCN(C(=O)NC3CCCCC3)CC2)N=C1c1ccc(C)cc1 -12.2%
Cc1cc(S(=O)(=O)Nc2cc3c(cc2C)n(C)c(=O)c(=O)n3C)ccc1F -3.22%
COc1ccc(Nc2cc(C(=O)NCCCN(C)Cc3ccccc3)c3ccccc3n2)cc1OC 10.6%
COc1cccc(OCc2nc3ccccc3n2Cc2ccccc2)c1 -14.8%
COc1cccc(CNC(=O)C(=O)NCC(c2cccs2)S(=O)(=O)c2cccs2)c1 (stereo not given) -9.45%
COc1ccc(-n2nc3cc(C)c(NC(=O)COc4cccc(C)c4)cc3n2)cc1 12.3%
Cc1cccc(S(=O)(=O)c2cn(Cc3ccccc3)c3cc(N4CCC(C)CC4)c(F)cc3c2=O)c1 -22.7%
CC1=C(C(=O)Nc2ccc(Cl)cc2)C(c2cccs2)n2nc(SCc3cccc(Cl)c3)nc2N1 (stereo not given) 5.42%
CCn1c(Oc2ccc(F)cc2F)nc2c1c(=O)n(C)c(=O)n2C -11.3%
CCOc1ccc(CC(=O)Nc2c(C(=O)c3ccc(Cl)cc3)oc3ccccc23)cc1OCC -14.8%
CCc1cc2c(cc3c(=O)n(CC(=O)NCc4cccc(Cl)c4)nc(CC)n32)s1 -10.1%
CCC1=Nc2cc(C(=O)NCCc3ccccc3)ccc2Sc2ccc(Cl)cc21 -16.1%
COC(=O)c1ccc(NC(=O)c2cc3cc(C)ccc3n2C)cc1 -22.3%
COc1ccc(NC(=O)CSc2nc3ccccc3n2CC(=O)NCc2ccc(F)cc2)cc1 -16.8%
COc1ccc(NC(=O)c2ccc(-c3nc(COc4ccccc4)c(C)o3)cc2)cc1 -6.01%
CCCCSCCCNC(=O)c1cn(CC)c2ccc(S(=O)(=O)N3CCOCC3)cc2c1=O -13.1%
Nc1ccc(S(=O)(=O)c2ccc(N)cc2)cc1 -6.54%
COc1ccc(S(=O)(=O)N2CCC(C(=O)Nc3ccc(Oc4ccccc4)cc3)CC2)cc1OC -4.04%
CCOc1ccc(NC(=O)CSc2nnc3c(C)cc4ccccc4n23)cc1 -13.3%
Cc1nn(-c2ccccc2)c2c1N(CCCC(=O)NCc1ccc(OC(C)C)cc1)C(=O)CS2 -9.35%
CC1CCc2nc3ccc(S(=O)(=O)N4CCC(C(=O)NCc5ccccc5Cl)CC4)cc3c(C(=O)O)c2C1 (stereo not given) 3.96%
Cc1ccc2c(CC(=O)Nc3ccc(S(=O)(=O)N4CCC(C)CC4)cc3)coc2c1 -6.53%
CCc1ccccc1NC(=O)Cn1nc(-c2cc(C)ccc2C)c2c(c1=O)CCCC2 -6%
O=c1c2[nH]c3ccccc3c2nc(SCc2ccccc2F)n1-c1ccc(F)cc1 -22.5%
COC(=O)c1ccccc1NC(=O)Cn1nc(C)c2nn(-c3ccc(Cl)cc3)c(C)c2c1=O -6.71%
CCCn1c2ccccc2c2cnn(CC(=O)Nc3ccccc3OC)c(=O)c21 2.07%
OC[C@H]1O[C@@H](Oc2ccc(O)cc2)[C@H](O)[C@@H](O)[C@@H]1O -10.8%
COc1cc(NC(=O)Nc2nnc(N3CCCCC3)s2)cc(OC)c1 -19.4%
Cc1cccc(NC(c2cccc(Cl)c2)c2ccc3cccnc3c2O)n1 (stereo not given) -21.9%
O=C(CSc1nc2c(c(=O)[nH]1)CN(Cc1ccc3c(c1)OCO3)CC2)Nc1cc(F)ccc1F -11.5%
Cc1ccccc1OCC(=O)Nc1ccc(OCc2cc(=O)n3ccccc3n2)cc1 -4.33%
COc1ccc(Cl)cc1NC(=O)C1CCCN(S(=O)(=O)c2ccc3c(c2)CCCC(=O)N3)C1 (stereo not given) -31.5%
Cc1ccc(CNC(=O)c2ccc3oc(=O)n(Cc4ccccc4)c3c2)cc1 -6.88%
COc1ccc(-c2cn3nc(N4CCCC(C(=O)Nc5ccccc5F)C4)sc3n2)cc1 (stereo not given) -14%
Cc1nn(CC(=O)Nc2ccc(C(C)C)cc2)c(=O)c2c(C)n(-c3ccc(Cl)cc3)nc12 -7.92%
COc1ccc(NC(=O)CSc2nccn2C2CCCC2)cc1OC -2.77%
CCOc1ccccc1N(C)C(=O)c1sc2nc3n(c(=O)c2c1C)CCCC3 -14.4%
CCCCN(CCCNC(=O)c1cc(Nc2ccc(OC)cc2OC)nc2ccccc12)Cc1ccccc1 -2.95%
CCCCOC(=O)c1ccc(NC(=O)C2(c3cccs3)CCOCC2)cc1 -13.6%
COc1ccc(-c2nnc(SCC(=O)Nc3cccc(C)c3)s2)cc1 -8.35%
CC(=O)N1CCc2cc(CNS(=O)(=O)c3cccs3)ccc21 1.98%
COc1ccc(NC(=O)CSc2nc(-c3ccccc3)cc(-c3cc(OC)c(OC)c(OC)c3)c2C#N)c(OC)c1 -9.24%
CCOC(=O)c1c(NC(=O)CSc2cn(CCNC(=O)c3ccc(OC)cc3)c3ccccc23)sc2c1CCC2 -11.9%
COc1ccccc1N1CCN(S(=O)(=O)CCNC(=O)c2cc(=O)c3ccccc3o2)CC1 0.915%
CC(C)(Oc1ccc(Cl)cc1)C(=O)Nc1ccc(-c2nc3ncccc3o2)cc1 -6.19%
Cc1ccc(Cn2cc(S(=O)(=O)c3ccccc3)c(=O)c3cc(F)c(N4CCOCC4)cc32)cc1 -10.2%
COc1ccc(NC(=O)C(c2ccc(OC)cc2)N(C)C(=O)Cc2cccs2)cc1 (stereo not given) -21.1%
Cn1ccc2cc(S(=O)(=O)N3CCN(C(=O)Nc4cccc(F)c4)CC3)ccc21 -0.644%
